In publication PMC9911399, “Two distinct binding modes provide the RNA-binding protein RbFox with extraordinary sequence specificity”:
Residue numbers refer to the chain shown, from its start. The list shows a part of the results.

T1: RBFOX1 RRM (Homo sapiens, UniProt Q9NWB1 109-208)
T1 sequence: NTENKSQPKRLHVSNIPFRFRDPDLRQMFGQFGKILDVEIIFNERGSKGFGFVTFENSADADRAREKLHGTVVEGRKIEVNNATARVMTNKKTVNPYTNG

B1: GGCUAUA (DNA:RNA)
RNA: GGGAGACCGGAAUUCAGAUUGUCCGGCUAUAUUAAAUCCCGUCGUAGCCACCA
DNA 1: CAATCTGAATTCCGGTCTCCC
DNA 2: TGGTGGCTACGACGGGATT
B2: CUGCGAC (DNA:RNA)
RNA: GGGAGACCGGAAUUCAGAUUGUCCCUGCGACUUAAAUCCCGUCGUAGCCACCA
DNA 1: CAATCTGAATTCCGGTCTCCC
DNA 2: TGGTGGCTACGACGGGATT
B3: GAAGACC (DNA:RNA)
RNA: B1 RNA with G26A, C27A, U28G, U30C, A31C
DNA 1: CAATCTGAATTCCGGTCTCCC
DNA 2: TGGTGGCTACGACGGGATT
B4: AGCUUAU (DNA:RNA)
RNA: B1 RNA with G25A, A29U, U30A, A31U
DNA 1: CAATCTGAATTCCGGTCTCCC
DNA 2: TGGTGGCTACGACGGGATT
B5: ACUCUUU (DNA:RNA)
RNA: B2 RNA with C25A, U26C, G27U, G29U, A30U, C31U
DNA 1: CAATCTGAATTCCGGTCTCCC
DNA 2: TGGTGGCTACGACGGGATT
B6: ACCUCCU (DNA:RNA)
RNA: B1 RNA with G25A, G26C, A29C, U30C, A31U
DNA 1: CAATCTGAATTCCGGTCTCCC
DNA 2: TGGTGGCTACGACGGGATT
B7: CUAACCC (DNA:RNA)
RNA: B2 RNA with G27A, C28A, G29C, A30C
DNA 1: CAATCTGAATTCCGGTCTCCC
DNA 2: TGGTGGCTACGACGGGATT
B8: CGAGUCG (DNA:RNA)
RNA: B2 RNA with U26G, G27A, C28G, G29U, A30C, C31G
DNA 1: CAATCTGAATTCCGGTCTCCC
DNA 2: TGGTGGCTACGACGGGATT
B9: GCUAUCC (DNA:RNA)
RNA: B2 RNA with C25G, U26C, G27U, C28A, G29U, A30C
DNA 1: CAATCTGAATTCCGGTCTCCC
DNA 2: TGGTGGCTACGACGGGATT
B10: GAUCUUU (DNA:RNA)
RNA: B1 RNA with G26A, C27U, U28C, A29U, A31U
DNA 1: CAATCTGAATTCCGGTCTCCC
DNA 2: TGGTGGCTACGACGGGATT
B11: ACCGACU (DNA:RNA)
RNA: B1 RNA with G25A, G26C, U28G, U30C, A31U
DNA 1: CAATCTGAATTCCGGTCTCCC
DNA 2: TGGTGGCTACGACGGGATT
B12: ACGCCCA (DNA:RNA)
RNA: B2 RNA with C25A, U26C, G29C, A30C, C31A
DNA 1: CAATCTGAATTCCGGTCTCCC
DNA 2: TGGTGGCTACGACGGGATT
B13: CGGGAUA (DNA:RNA)
RNA: B1 RNA with G25C, C27G, U28G
DNA 1: CAATCTGAATTCCGGTCTCCC
DNA 2: TGGTGGCTACGACGGGATT
B14: GCAACAA (DNA:RNA)
RNA: B1 RNA with G26C, C27A, U28A, A29C, U30A
DNA 1: CAATCTGAATTCCGGTCTCCC
DNA 2: TGGTGGCTACGACGGGATT
B15: CCCUUAG (DNA:RNA)
RNA: B2 RNA with U26C, G27C, C28U, G29U, C31G
DNA 1: CAATCTGAATTCCGGTCTCCC
DNA 2: TGGTGGCTACGACGGGATT
B16: UCUAUGG (DNA:RNA)
RNA: GGGAGACCGGAAUUCAGAUUGUCCUCUAUGGUUAAAUCCCGUCGUAGCCACCA
DNA 1: CAATCTGAATTCCGGTCTCCC
DNA 2: TGGTGGCTACGACGGGATT
B17: CAUUGGC (DNA:RNA)
RNA: B2 RNA with U26A, G27U, C28U, A30G
DNA 1: CAATCTGAATTCCGGTCTCCC
DNA 2: TGGTGGCTACGACGGGATT
B18: UCGUCCU (DNA:RNA)
RNA: B16 RNA with U27G, A28U, U29C, G30C, G31U
DNA 1: CAATCTGAATTCCGGTCTCCC
DNA 2: TGGTGGCTACGACGGGATT
B19: GCCAGGC (DNA:RNA)
RNA: B16 RNA with U25G, U27C, U29G, G31C
DNA 1: CAATCTGAATTCCGGTCTCCC
DNA 2: TGGTGGCTACGACGGGATT
B20: CCUACUG (DNA:RNA)
RNA: B16 RNA with U25C, U29C, G30U
DNA 1: CAATCTGAATTCCGGTCTCCC
DNA 2: TGGTGGCTACGACGGGATT
B21: GCGCAUG (DNA:RNA)
RNA: B1 RNA with G26C, C27G, U28C, A31G
DNA 1: CAATCTGAATTCCGGTCTCCC
DNA 2: TGGTGGCTACGACGGGATT
B22: CUAGCUC (DNA:RNA)
RNA: B2 RNA with G27A, C28G, G29C, A30U
DNA 1: CAATCTGAATTCCGGTCTCCC
DNA 2: TGGTGGCTACGACGGGATT
B23: GAUUCGA (DNA:RNA)
RNA: B1 RNA with G26A, C27U, A29C, U30G
DNA 1: CAATCTGAATTCCGGTCTCCC
DNA 2: TGGTGGCTACGACGGGATT
B24: UUUGAUG (DNA:RNA)
RNA: B16 RNA with C26U, A28G, U29A, G30U
DNA 1: CAATCTGAATTCCGGTCTCCC
DNA 2: TGGTGGCTACGACGGGATT
B25: AUCUUAC (DNA:RNA)
RNA: B2 RNA with C25A, G27C, C28U, G29U
DNA 1: CAATCTGAATTCCGGTCTCCC
DNA 2: TGGTGGCTACGACGGGATT
B26: CUACCGA (DNA:RNA)
RNA: B2 RNA with G27A, G29C, A30G, C31A
DNA 1: CAATCTGAATTCCGGTCTCCC
DNA 2: TGGTGGCTACGACGGGATT
B27: CGGUUUA (DNA:RNA)
RNA: B1 RNA with G25C, C27G, A29U
DNA 1: CAATCTGAATTCCGGTCTCCC
DNA 2: TGGTGGCTACGACGGGATT
B28: CCUUUAC (DNA:RNA)
RNA: B2 RNA with U26C, G27U, C28U, G29U
DNA 1: CAATCTGAATTCCGGTCTCCC
DNA 2: TGGTGGCTACGACGGGATT
B29: CCGAGUC (DNA:RNA)
RNA: B2 RNA with U26C, C28A, A30U
DNA 1: CAATCTGAATTCCGGTCTCCC
DNA 2: TGGTGGCTACGACGGGATT
B30: AUUCUUA (DNA:RNA)
RNA: B2 RNA with C25A, G27U, G29U, A30U, C31A
DNA 1: CAATCTGAATTCCGGTCTCCC
DNA 2: TGGTGGCTACGACGGGATT
B31: AUACUGG (DNA:RNA)
RNA: B16 RNA with U25A, C26U, U27A, A28C
DNA 1: CAATCTGAATTCCGGTCTCCC
DNA 2: TGGTGGCTACGACGGGATT

Each binder was assayed against T1, RBFOX1 RRM (assay: EMSA; HiTS-Eq, 1 nM pool, 10 min; buffer printed only for the single-RNA assays: 10 mM Tris pH 7.5, 150 mM NaCl, 3.4 mM EDTA, 0.001% NP-40, 30 C). Conditions: tags: His6 N-terminal (pET28a); label: 5' 32P.
In short: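 Purified wild-type or mutant RbFox RRM at increasing concentrations was equilibrated with 1 nM of 5′-radiolabelled RNA carrying 7 randomized nucleotides for 10 min in 50 µL. Unbound RNA was separated by 8% native PAGE and sequenced. Relative association constants came from read-count changes of each RNA species compared with the control reaction, normalised to the cognate motif.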

| Binder | binding signal |
| --- | --- |
| B1 | 0.00398 KA relative to UGCAUGU |
| B2 | 0.00552 KA relative to UGCAUGU |
| B3 | 0.00626 KA relative to UGCAUGU |
| B4 | 0.00288 KA relative to UGCAUGU |
| B5 | 0.00357 KA relative to UGCAUGU |
| B6 | 0.00169 KA relative to UGCAUGU |
| B7 | 0.00193 KA relative to UGCAUGU |
| B8 | 0.0112 KA relative to UGCAUGU |
| B9 | 0.00834 KA relative to UGCAUGU |
| B10 | 0.0119 KA relative to UGCAUGU |
| B11 | 0.00408 KA relative to UGCAUGU |
| B12 | 0.000356 KA relative to UGCAUGU |
| B13 | 0.0195 KA relative to UGCAUGU |
| B14 | 0.00553 KA relative to UGCAUGU |
| B15 | 0.00737 KA relative to UGCAUGU |
| B16 | 0.00832 KA relative to UGCAUGU |

| Binder | binding signal |
| --- | --- |
| B17 | 0.0132 KA relative to UGCAUGU |
| B18 | 0.0102 KA relative to UGCAUGU |
| B19 | 0.0132 KA relative to UGCAUGU |
| B20 | 0.00803 KA relative to UGCAUGU |
| B21 | 0.843 KA relative to UGCAUGU |
| B22 | 0.013 KA relative to UGCAUGU |
| B23 | 0.0161 KA relative to UGCAUGU |
| B24 | 0.0244 KA relative to UGCAUGU |
| B25 | 0.000766 KA relative to UGCAUGU |
| B26 | 0.00627 KA relative to UGCAUGU |
| B27 | 0.0105 KA relative to UGCAUGU |
| B28 | 0.00589 KA relative to UGCAUGU |
| B29 | 0.0112 KA relative to UGCAUGU |
| B30 | 0.00172 KA relative to UGCAUGU |
| B31 | 0.00795 KA relative to UGCAUGU |
